In paper PMC10040399:
Where two headings read alike, the source gives them in different places. No constants are given. Whether binding was seen depends on the method and setting. Binding seen in cells or lysates may run through a third protein. Some results given as binding are weak or reduced against the parent protein; the word gives no strength. For some of these results: Where a sequence is shown, tags or fusion partners need not be part of it. Blank lines part the entries; values can stand above or below the molecule they belong to.

Protein sequences, listed by entry. Tags and fused reporters are not part of them.
UniProt Q96EQ9: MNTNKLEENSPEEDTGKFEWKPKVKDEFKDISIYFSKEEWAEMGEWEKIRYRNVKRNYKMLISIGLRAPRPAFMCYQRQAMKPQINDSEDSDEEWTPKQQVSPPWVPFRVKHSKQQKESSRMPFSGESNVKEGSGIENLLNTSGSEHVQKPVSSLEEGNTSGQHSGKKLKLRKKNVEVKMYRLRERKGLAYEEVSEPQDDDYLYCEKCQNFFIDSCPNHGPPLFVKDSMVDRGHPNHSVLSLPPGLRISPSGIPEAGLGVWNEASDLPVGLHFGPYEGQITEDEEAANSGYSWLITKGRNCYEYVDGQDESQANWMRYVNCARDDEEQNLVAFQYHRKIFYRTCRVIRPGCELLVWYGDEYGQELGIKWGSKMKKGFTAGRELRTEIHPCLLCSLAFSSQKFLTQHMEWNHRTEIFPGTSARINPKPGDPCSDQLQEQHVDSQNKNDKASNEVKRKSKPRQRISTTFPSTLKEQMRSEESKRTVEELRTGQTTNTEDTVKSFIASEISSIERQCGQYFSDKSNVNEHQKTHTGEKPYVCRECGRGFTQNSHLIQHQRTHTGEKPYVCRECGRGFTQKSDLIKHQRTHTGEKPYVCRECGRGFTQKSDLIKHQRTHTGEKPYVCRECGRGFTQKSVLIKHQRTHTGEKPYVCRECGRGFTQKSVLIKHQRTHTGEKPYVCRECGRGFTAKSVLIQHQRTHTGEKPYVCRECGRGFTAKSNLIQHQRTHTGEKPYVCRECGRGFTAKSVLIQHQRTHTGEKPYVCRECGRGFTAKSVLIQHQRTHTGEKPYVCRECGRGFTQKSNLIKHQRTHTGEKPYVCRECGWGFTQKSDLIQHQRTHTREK
UniProt P56959: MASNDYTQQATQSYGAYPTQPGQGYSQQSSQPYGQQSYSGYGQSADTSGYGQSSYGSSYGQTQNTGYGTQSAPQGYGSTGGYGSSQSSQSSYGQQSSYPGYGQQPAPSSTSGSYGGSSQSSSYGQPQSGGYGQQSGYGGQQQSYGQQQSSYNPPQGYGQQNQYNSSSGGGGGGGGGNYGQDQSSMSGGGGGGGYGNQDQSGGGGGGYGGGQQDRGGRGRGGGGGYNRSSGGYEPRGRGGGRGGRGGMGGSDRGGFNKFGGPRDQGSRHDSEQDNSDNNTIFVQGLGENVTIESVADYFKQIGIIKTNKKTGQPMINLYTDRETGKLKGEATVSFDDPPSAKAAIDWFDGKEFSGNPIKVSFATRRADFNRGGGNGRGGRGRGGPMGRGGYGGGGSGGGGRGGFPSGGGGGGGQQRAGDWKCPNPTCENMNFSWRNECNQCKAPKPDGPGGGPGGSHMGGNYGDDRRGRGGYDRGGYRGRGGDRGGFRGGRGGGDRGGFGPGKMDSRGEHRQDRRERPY
UniProt P35637: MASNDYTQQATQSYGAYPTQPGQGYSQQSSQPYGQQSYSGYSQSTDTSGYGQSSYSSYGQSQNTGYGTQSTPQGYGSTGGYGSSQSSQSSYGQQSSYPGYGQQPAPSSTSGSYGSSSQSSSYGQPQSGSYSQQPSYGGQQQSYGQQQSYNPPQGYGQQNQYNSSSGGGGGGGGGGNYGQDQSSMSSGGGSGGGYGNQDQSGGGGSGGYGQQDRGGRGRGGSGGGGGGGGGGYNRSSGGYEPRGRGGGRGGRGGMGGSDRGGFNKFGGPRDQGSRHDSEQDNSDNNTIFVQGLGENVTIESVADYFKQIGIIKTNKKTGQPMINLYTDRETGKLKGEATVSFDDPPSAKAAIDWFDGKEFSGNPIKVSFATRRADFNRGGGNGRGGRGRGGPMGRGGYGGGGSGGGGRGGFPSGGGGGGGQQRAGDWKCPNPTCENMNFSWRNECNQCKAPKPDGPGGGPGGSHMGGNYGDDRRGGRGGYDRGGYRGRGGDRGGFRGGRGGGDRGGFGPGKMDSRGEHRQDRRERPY
UniProt Q61545: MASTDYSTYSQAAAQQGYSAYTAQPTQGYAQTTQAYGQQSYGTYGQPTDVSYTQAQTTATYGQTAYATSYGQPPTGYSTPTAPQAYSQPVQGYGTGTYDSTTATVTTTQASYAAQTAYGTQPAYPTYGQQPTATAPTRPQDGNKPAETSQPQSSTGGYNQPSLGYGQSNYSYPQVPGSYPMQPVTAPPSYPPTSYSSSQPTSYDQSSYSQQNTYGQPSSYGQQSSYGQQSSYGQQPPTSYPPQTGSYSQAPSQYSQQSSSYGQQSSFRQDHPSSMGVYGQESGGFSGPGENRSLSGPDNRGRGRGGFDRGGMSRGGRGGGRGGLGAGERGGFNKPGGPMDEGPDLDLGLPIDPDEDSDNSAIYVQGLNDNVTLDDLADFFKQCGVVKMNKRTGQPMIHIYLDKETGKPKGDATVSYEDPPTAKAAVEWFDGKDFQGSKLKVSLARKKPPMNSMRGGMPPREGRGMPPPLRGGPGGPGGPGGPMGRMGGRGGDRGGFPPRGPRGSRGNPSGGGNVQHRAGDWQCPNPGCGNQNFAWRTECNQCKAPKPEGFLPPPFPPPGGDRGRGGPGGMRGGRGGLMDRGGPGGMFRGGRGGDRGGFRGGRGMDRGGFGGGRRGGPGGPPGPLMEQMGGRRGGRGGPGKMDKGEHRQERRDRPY

Tests used:
[1] = molecular target: PRDM9-maltose binding protein (full-length Prdm9^Dom2 allele with MBP tag) (mouse) (UniProt Q96EQ9); assay: pull-down; PRDM9-MBP on amylose resin incubated 3 h at 4 °C with HEK293 lysate in HEK-lysis buffer (400 mM NaCl, 5 mM EDTA, 50 mM Hepes-NaOH pH 7.4, 1% Triton X-100); washed with PBS; Western blot for FUS; only the target purified
[2] = molecular target: T1, SPO11α-GST recombinant protein (UniProt Q9WTK8); assay: pull-down; SPO11β-GST or SPO11α-GST on glutathione-agarose beads incubated 3 h at 4 °C with HEK293 lysate in HEK-lysis buffer (400 mM NaCl, 5 mM EDTA, 50 mM Hepes-NaOH pH 7.4, 1% Triton X-100); washed with PBS; Western blot for FUS; only the target purified
T1 sequence: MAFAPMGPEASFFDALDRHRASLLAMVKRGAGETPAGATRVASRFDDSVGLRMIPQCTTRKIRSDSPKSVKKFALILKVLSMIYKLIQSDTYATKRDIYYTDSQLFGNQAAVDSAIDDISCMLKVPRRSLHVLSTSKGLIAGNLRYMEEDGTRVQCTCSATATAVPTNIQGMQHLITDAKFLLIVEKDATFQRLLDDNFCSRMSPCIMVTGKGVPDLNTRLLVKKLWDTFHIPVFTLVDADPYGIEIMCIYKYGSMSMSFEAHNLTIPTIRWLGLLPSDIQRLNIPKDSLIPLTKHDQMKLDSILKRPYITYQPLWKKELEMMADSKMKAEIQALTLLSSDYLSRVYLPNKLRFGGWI

[3] = molecular target: T2, SPO11β-GST recombinant protein (UniProt Q9WTK8); assay: as above
T2 sequence: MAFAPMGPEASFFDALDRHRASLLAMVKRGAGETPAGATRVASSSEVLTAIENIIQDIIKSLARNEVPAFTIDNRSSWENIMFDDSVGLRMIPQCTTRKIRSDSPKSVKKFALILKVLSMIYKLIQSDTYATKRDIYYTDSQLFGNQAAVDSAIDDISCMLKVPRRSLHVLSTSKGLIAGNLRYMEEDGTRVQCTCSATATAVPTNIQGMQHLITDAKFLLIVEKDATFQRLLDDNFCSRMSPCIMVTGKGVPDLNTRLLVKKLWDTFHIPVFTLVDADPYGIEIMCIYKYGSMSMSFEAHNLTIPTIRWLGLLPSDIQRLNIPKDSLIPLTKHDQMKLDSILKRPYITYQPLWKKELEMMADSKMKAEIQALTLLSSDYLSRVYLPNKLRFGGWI

[4] = molecular target: T3, SPO11, endogenous in wild-type mouse testis (mouse (endogenous in testis)) (UniProt Q9WTK8); assay: co-IP; anti-SPO11-180 antibody on Dynabeads Protein-A, 4 °C; total testis extracts of juvenile (12 dpp) wild-type mice (FUS and PRDM9 weaker from adult testes) and of adult Spo11β-only or Spo11α-only knock-in mice, Pierce IP lysis buffer with benzonase; Western blot
T3 sequence: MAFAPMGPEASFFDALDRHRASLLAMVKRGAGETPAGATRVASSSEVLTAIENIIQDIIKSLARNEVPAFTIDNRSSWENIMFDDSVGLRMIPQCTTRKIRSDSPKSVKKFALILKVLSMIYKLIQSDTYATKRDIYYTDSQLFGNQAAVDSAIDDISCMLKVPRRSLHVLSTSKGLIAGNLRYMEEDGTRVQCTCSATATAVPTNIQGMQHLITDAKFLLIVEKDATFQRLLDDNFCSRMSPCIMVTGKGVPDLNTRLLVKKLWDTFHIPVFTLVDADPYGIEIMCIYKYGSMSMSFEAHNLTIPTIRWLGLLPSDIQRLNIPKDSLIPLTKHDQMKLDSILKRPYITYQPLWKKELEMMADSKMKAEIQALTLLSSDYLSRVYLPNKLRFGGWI

[5] = molecular target: FUS (fused in sarcoma)/TLS (translocated in liposarcoma), endogenous in mouse testis (mouse (endogenous in testis)) (UniProt P56959); assay: co-IP; anti-FUS antibody on Dynabeads Protein-A, 4 °C; extracts of mouse testes (juvenile wild type, preleptotene/leptotene/zygotene enriched cells, Prdm9 transgenic and Spo11-/- mice) in Pierce IP lysis buffer with benzonase; Western blot
[6] = molecular target: T3, SPO11, endogenous in wild-type mouse testis (mouse (endogenous in testis)); assay: co-IP; anti-SPO11-180 antibody on Dynabeads Protein-A; total testis extract of an adult (6-month-old) wild-type mouse, with benzonase; Western blot
[7] = molecular target: FUS (fused in sarcoma)/TLS (translocated in liposarcoma), endogenous in mouse testis (mouse (endogenous in testis)) (UniProt P56959); assay: co-IP; anti-FUS antibody on Dynabeads Protein-A, 4 °C; extracts of mouse testes (juvenile wild type, preleptotene/leptotene/zygotene enriched cells, Prdm9 transgenic and Spo11-/- mice) in Pierce IP lysis buffer with benzonase; Western blot; remark: listed apart in the source
[8] = molecular target: T3, SPO11, endogenous in wild-type mouse testis (mouse (endogenous in testis)); assay: condition: only in fractions enriched in pachytene/diplotene cells or round spermatids; co-IP; anti-SPO11-180 antibody on Dynabeads Protein-A; extracts of fractions enriched in pachytene/diplotene cells or round spermatids from adult mice, with benzonase; Western blot

- binding [1]: binds
- binding [2]: binds
- binding [3]: binds
Molecule: FUS/TLS, endogenously expressed in HEK293 cells (from UniProt P35637 1-526)

- binding [4]: binds
Molecule: EWS, endogenous in mouse testis (from UniProt Q61545 1-655)

- binding [5]: binds
- binding [4]: binds
Molecule: PR domain-containing 9 (PRDM9), endogenous in mouse testis (from UniProt Q96EQ9 1-843)

- binding [6]: binds weakly
- binding [7]: binds
- binding [4]: binds
- binding [8]: no binding
B1: REC114, endogenous in mouse testis (protein, UniProt Q9CWH4 1-259)
chain: MSEAGNVASGLGLPGEVSQWSLKRYGRFMLLDNVGSPGPSSEAAAAGSPTWKVFESSEESGSLVLTIVVSGHFFISQGQTLLEGFSLIGSKNWLKIVRRMDCLLFGTTIKNKSRMFRVQFSGESKEEALERCCGCVQTLAQYVTVQEPDSTTQELQQSQGPREAGESQGKDPLQQGPSLTLEQHVCMAAGAGVLQERTSVTHRAQSILAPEKLTLAYEGSSWGTEELGPFLRLCLMDQNFPAFVEEVEKELKKITGLRN
